Laboratory results reported in PubChem BioAssay AID1346428 (National Center for Advancing Translational Sciences (NCATS), 2018).
Where “and” joins values, the source holds several entries; their conditions need not be identical. Identical values can stand only once. Screen size: about 48,000 compounds; about 1,200 (2.5%) were called active. About 2% were inconclusive and are not listed.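 The calls were made as follows: active = activation of at least 60% and not above a set upper limit (about 1 call in 100 departs from these limits); inconclusive = activation of 40% to 60%, or above that upper limit; inactive = activation under 40%.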 The list shows a part of the results.

The compounds below were run against Probable G-protein coupled receptor 32 (Homo sapiens) (UniProt O75388) (assay: qHTS for Agonists of Human Resolvin D1 Receptor DRV1). Settings: CHO-K1 GPR32 beta-arrestin PathHunter luminescence, 90 min; at 76.9 µM; hits give high values; zero percent set by DMSO-only wells.
Description: Endogenous resolution of inflammation is known to be transduced through various GPCRs and their natural mediators of lipid nature. Resolvin D1 (RvD1) is one of the active players in resolution of acute inflammation through regulation of anti-inflammatory pathways; it is known to enhance phagocytosis of human macrophages, limits neutrophils infiltration, etc. […] The search for GPR32-activating small molecules with anti-inflammatory effects similar to its natural omega-3 derivative ligand in order to use them as research tools for further studies of inflammation and its resolution was the goal of this screening project. For primary screening assay, we used CHO-K1 GPR32 beta-arrestin cell line (DiscoveRx, #93-0321C2A) and the PathHunter(R) beta-Arrestin Assay (DiscoveRx) which measures recruitment of beta-arrestin to the GPR32 and generates chemiluminescent signal. These engineered cells stably transfected with GPR32 co-express GPR32-fused small 42-amino acid fragment of beta-Gal called ProLinktrade mark, and […] -tagged beta-Arrestin fusion protein. When GPR32 is activated by a ligand, it stimulates binding of beta -Arrestin to ProLink-tagged GPR32, and two parts of beta-Gal complement forming a functional enzyme. Upon substrate (PathHunter(R) Detection reagent) addition, beta-Gal hydrolyzes it and generates a chemiluminescent signal.
The cells were thawed and plated in thawing media containing F-12 HAM (Invitrogen, #11765-054), 10% FBS (Invitrogen, #10082), 1x Glutamine, and 1x Pen/Strep onto the 175-mm flask for 24 hours. Then, thawing media was replaced with Growth media which contains 800microg/mL Geneticin (Invitrogen, #10131) and 300microg/mL Hygromycin B (Invitrogen, #10687) in addition to described above. For the assay, the cells were harvested at ~80% confluent stage with Cell Dissociation buffer (Gibco, #13151), and seeded at 2,500 cells/ 3microL/well in assay media (PathHunter(R) Cell Plating Reagent, DiscoverX, #93-0563R1B) using MultiDrop Combi dispenser (Thermo Scientific, Logan, UT) onto white solid bottom tissue culture-treated 1536-well plates (Greiner # 789173-F) and allowed to attach overnight at 37 degrees C, 95% humidity, 5% CO2, . Next, 23nL/well of compound solutions in DMSO were added with a Pin Tool (Kalypsis, San Diego, CA) to the assay plates. As the basal control (EC0), 23 nL/well of DMSO was used on each plate. The cells were incubated in the presence of compounds or DMSO for 90 minutes at 37 degrees C, 5% CO2. Subsequently, 1.5microL/well of PathHunter(R) Detection Reagent prepared per the manufacturer's instructions was added to the assay plates with BioRAPTR FRDtrade mark dispenser (Beckman Coulter, San Francisco, CA) and incubated for 1 hour at ambient temperature prior to the measurement of the luminescent signal on ViewLux(R) uHTS Microplate Imager (Perkin Elmer, Waltham, MA).

Chain of UniProt O75388 (O75388 whole entry, looked up): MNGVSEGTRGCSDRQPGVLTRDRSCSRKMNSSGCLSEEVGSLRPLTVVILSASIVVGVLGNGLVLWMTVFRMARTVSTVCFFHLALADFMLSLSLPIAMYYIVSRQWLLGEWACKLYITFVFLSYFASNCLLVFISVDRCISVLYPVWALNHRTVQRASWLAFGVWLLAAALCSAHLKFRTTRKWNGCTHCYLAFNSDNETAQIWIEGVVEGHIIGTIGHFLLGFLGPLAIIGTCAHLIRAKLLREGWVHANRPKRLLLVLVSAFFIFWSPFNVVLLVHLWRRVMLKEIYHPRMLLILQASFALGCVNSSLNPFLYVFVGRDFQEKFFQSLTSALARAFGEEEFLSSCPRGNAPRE

SMILES | activation
Cc1cccc(-c2nc(CCNC(=O)Cc3ccc(F)cc3)cs2)c1 | inactive: -16%
CCC(Nc1ccc(-c2nc(-c3ccco3)no2)cc1[N+](=O)[O-])c1ccccc1 (stereo not drawn) | inactive: -5.96%
COc1ccccc1CNC(=O)Cn1c(=O)oc2cc(S(=O)(=O)N3CCC(C)CC3)ccc21 | active: 77.5%
COc1ccccc1NC(=O)CSc1ccc(-c2sc(C)nc2C)nn1 | inactive: -6.95%
COc1ccc(C2c3cccn3CCN2S(=O)(=O)c2ccccc2[N+](=O)[O-])cc1OC (stereo not drawn) | inactive: -9.97%
CC(C)(C)c1ccc(C(O)CCCN2CCC(C(O)(c3ccccc3)c3ccccc3)CC2)cc1 (stereo not drawn) | inactive: 10% and inactive: -15.1%
CC(CNC(=O)Cn1ccc2cc(S(=O)(=O)N3CCCCC3)ccc21)c1ccccc1 (stereo not drawn) | inactive: 36.3%
CCc1ccc2occ(CC(=O)Nc3c(C(=O)Nc4ccc(OC)cc4)oc4ccccc34)c2c1 | inactive: -3.68%
O=C(NCc1ccccc1)c1nnc(Cc2cccc(F)c2)o1 | inactive: -5.23%
CCc1ccc(CNC(=O)CCc2c(C)nn(-c3ccc(N4CCCCC4)nn3)c2C)cc1 | inactive: -20.7%
O=C(NCC(c1ccc2c(c1)OCO2)N1CCOCC1)c1ccccc1F (stereo not drawn) | inactive: -16.9%
Cc1cc2nn(-c3ccc(F)cc3)nc2cc1NC(=O)c1ccc(OC(C)C)cc1 | inactive: -12.7%
CCOc1ccc(CCNC(=O)C2CCN(C(=O)N3CC(CC)Oc4ccc(C)cc43)CC2)cc1 (stereo not drawn) | inactive: -15.4%
Cc1ccc2nc(Cl)c3cc(C(=O)N(C)C4CCCCC4)sc3c2c1 | inactive: -0.325%
CCn1c(CNC(=O)c2ccc(OC)cc2)nnc1SCC(=O)Nc1cccc(C)c1C | inactive: 19%
CCOC(=O)c1c(C)oc2nc(C)nc(NCC3CCN(Cc4cccc(C)c4)CC3)c12 | inactive: -12.4%
COc1cccc(Cn2c(=O)n(-c3cccc(Cl)c3C)c(=O)c3c4c(sc32)CN(C(C)=O)CC4)c1 | inactive: -12.8%
Cc1ccc(NC(=O)CSc2nc3ccc(NC(=O)c4cccs4)cc3s2)c(C)c1 | inactive: -10.5%
CCNC(=O)CC1C(=O)N(c2ccccc2)C(=O)N1Cc1ccc(F)cc1 (stereo not drawn) | inactive: -3.17%
Cc1cccc(NC(=O)Cn2c(=O)n(Cc3ccc(C(=O)NCc4ccc5c(c4)OCO5)cc3)c(=O)c3ccccc32)c1 | inactive: 18.1%
O=C(CCn1c(=O)c2cccn2c2ccc(F)cc21)NCc1ccccc1F | inactive: -20.7%
Cc1ccc(NC(=O)CSc2nc(-c3ccc(F)cc3)cc(C(F)(F)F)c2C#N)cc1 | inactive: -10.4%
CCOc1ccc(C(=O)c2cn(CC(=O)Nc3cc(OC)cc(OC)c3)c3ccc(F)cc3c2=O)cc1 | inactive: -0.755%
COc1ccc(NC(=O)Cn2c(=O)oc3cc(S(=O)(=O)NC(C)C)ccc32)cc1OC | inactive: -4.8%
Cc1cccc(OCc2nnc(SCC(=O)Nc3ccc(C)cc3C)o2)c1 | inactive: -0.578%
Cc1ccccc1Cn1c(SCc2ccc(C(=O)NCc3cccs3)cc2)nc2ccncc21 | inactive: -11.4%
COc1ccc(S(=O)(=O)N(Cc2nc(-c3cccc(C)c3)no2)C2CCCCC2)cc1 | inactive: -16.1%

SMILES | activation
Cc1ccccc1Cn1c(CCCNC(=O)C2CCCCC2)nc2ccccc21 | inactive: 32.5%
Cc1nnc(N2CCC(C(=O)NC(C)C)CC2)c2nn(-c3ccc(Cl)cc3)c(C)c12 | inactive: 6.67%
CCCSCCCNC(=O)C1CCN(C(=O)c2cc3sccc3n2C)CC1 | inactive: -4.88%
COc1ccccc1N1CCN(S(=O)(=O)c2ccc3c(c2)oc(=O)n3C)CC1 | inactive: -8.91%
c1ccc2nc(C3=NCCN3)ccc2c1 | inactive: 3.87%
CCCCOc1ccc(C2c3c(-c4ccccc4O)n[nH]c3C(=O)N2Cc2ccncc2)cc1OC (stereo not drawn) | inactive: -27.8%
O=C(Nc1nc(-c2ccc(Br)cc2)ns1)c1ccc(F)cc1 | inactive: -2.95%
O=S(=O)(c1ccc(-n2cnnn2)cc1)N1CCN(c2ccccc2F)CC1 | inactive: -2.41%
CCN(CCCNC(=O)c1cc2c(=O)[nH]c3ccccc3c2s1)c1ccccc1 | inactive: -11.8%
CCC1CCCCN1S(=O)(=O)c1ccc(NC(=O)c2cc(=O)c3ccccc3o2)cc1 (stereo not drawn) | inactive: 8.2%
CCOc1ccc(-n2c(C)nc3c(cnn3-c3ccc(C)cc3)c2=O)cc1 | inactive: -14.8%
Cc1c2cnn(CC(=O)NCc3ccccc3)c(=O)c2c(C)n1Cc1cccc(Cl)c1 | inactive: -8.12%
CC(=O)c1cccc(NC(=O)Cn2c(SCC(=O)Nc3ccc(F)cc3)nc3ccccc32)c1 | inactive: -6.31%
COCCCNC(=O)CSc1nc(-c2cccc(F)c2)[nH]c1-c1ccccc1 | inactive: -20.3%
O=C(CN1CCN(Cc2ccccc2Cl)C1=O)NCc1ccccc1Cl | inactive: 7.87%
COc1ccc(-c2c(C#N)c(SCC(=O)Nc3ccccc3C)nc(C)c2C(=O)Nc2ccccc2)cc1OC | inactive: -19.4%
COc1ccc(CCN2C(=O)N(c3ccc(F)cc3)C(=O)C2CC(=O)Nc2ccccc2)cc1 (stereo not drawn) | inactive: 26.7%
Cn1cc(S(=O)(=O)c2ccccc2)c(=O)c2cc(F)c(N3CCOCC3)cc21 | inactive: 1.72%
N#C/C(=C\c1ccc(Cl)cc1)C(=O)NCC1CCCO1 (stereo not drawn) | inactive: 16.4%
COc1ccc2cc([S+]([O-])Cc3ncc(C)c(OC)c3C)nc2c1 | inactive: 6%
COc1cccc(N2CCN(C(=O)CCS(=O)(=O)c3ccc4c(c3)CC(=O)N4C)CC2)c1 | inactive: 44.8%
O=c1oc2ccccc2n1CCCOc1ccccc1Cl | inactive: 33.6%
CS(=O)(=O)N1CCc2cc(C(=O)Nc3ccc(Cl)c(C(F)(F)F)c3)ccc21 | inactive: 10.7%
CCN(CC)C(=O)Cn1c(=O)n(Cc2ccc(C(=O)NCc3ccc(C)cc3)cc2)c(=O)c2ccccc21 | inactive: -7.29%
Cc1ncc(CO)c2c1Oc1nc(-c3ccccc3)nc(SCC(=O)N3CCCCC3)c1C2 | inactive: -1.06%
O=C(C1CCC(CNS(=O)(=O)c2ccc(Br)s2)CC1)N1CCN(c2ccccc2Cl)CC1 (stereo not drawn) | inactive: -15.6%
